The source of these data is article PMC6919601, “Identification of Plasmodium dipeptidyl aminopeptidase allosteric inhibitors by high throughput screening” (PLoS ONE, 2019).

The campaign covered roughly 110,000 compounds. About 230 (0.21%) showed an effect of 50% or more. Some of the results follow.
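Note: 30 min substrate incubation versus DMSO and 10 µM JCP410 controls.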

In the test the target is DPAP1 (Plasmodium falciparum, UniProt Q8IIJ9). Nature of the test: primary screen, percent inhibition; read by cleavage of a fluorogenic dipeptide substrate; higher = more effect of the substance. Also noted: species or system P. falciparum D10 trophozoite lysates; single well.
Chain of DPAP1 (Q8IIJ9 whole entry, looked up): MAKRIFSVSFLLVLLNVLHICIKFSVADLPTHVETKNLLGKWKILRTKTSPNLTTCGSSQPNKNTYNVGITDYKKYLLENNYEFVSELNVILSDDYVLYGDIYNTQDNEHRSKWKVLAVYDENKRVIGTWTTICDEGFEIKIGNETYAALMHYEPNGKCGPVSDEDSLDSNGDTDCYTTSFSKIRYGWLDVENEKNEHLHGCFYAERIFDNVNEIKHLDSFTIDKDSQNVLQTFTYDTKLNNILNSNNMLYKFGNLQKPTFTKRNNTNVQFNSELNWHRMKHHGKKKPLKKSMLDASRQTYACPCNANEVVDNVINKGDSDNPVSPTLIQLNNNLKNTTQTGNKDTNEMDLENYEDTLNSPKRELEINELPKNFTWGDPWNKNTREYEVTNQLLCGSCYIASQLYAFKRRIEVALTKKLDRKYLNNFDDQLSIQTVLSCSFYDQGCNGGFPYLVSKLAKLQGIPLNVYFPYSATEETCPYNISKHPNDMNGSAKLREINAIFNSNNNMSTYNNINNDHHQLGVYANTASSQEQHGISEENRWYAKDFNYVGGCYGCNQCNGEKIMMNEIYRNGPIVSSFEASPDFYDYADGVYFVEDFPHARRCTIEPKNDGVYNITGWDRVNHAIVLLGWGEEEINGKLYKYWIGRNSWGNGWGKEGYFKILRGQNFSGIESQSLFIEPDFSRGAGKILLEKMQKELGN
In the case of `O=S(=O)(Nc1ccccc1NS(=O)(=O)c1ccc(Cl)cc1)c1ccc(Cl)cc1`, the “% Inhibition @ 10 uM” value was -10.2%.

As for `Cc1nn(CCC(=O)N2CCC3(CC2)OCCO3)c(=O)c2nn(-c3ccccc3)c(C)c12`, the “% Inhibition @ 10 uM” value is given as -10%. In the case of `Fc1ccc(CN2CCN(c3ccccc3F)CC2)cc1`, the “% Inhibition @ 10 uM” value is given as 3.16%. With `CN1CCN(CC(O)COc2ccc(F)cc2)CC1` (stereo not shown), the “% Inhibition @ 10 uM” value amounted to 0.275%. Under `O=C1C2C3C=CC(CC3)C2C(=O)N1c1cc(Cl)ccc1Cl` (stereo not shown) stands 1.62%. Under `CNS(=O)(=O)c1cccs1` stands 1.37%. As to `O=C(/C=C/c1ccccc1)N1CCN(C2=NS(=O)(=O)c3ccccc32)CC1`, the “% Inhibition @ 10 uM” value was -7.02%.

For the compound `CC(=O)c1ccc(NC(=O)CCCC(=O)O)cc1`, the “% Inhibition @ 10 uM” value is -0.999%. On to `COc1ccc(C)cc1NC(=O)CNS(=O)(=O)c1cc(Cl)ccc1Cl`, for which the “% Inhibition @ 10 uM” value was 1.43%. Under `Fc1cccc(F)c1CN1CCc2c([nH]c3ccccc23)C1` stands 0.472%; under `COc1ccc(CCn2c(C)c3c(C)nn4cc(C)cc4c3c2C)cc1OC`, 2.01%; under `CCOC(=O)c1c(NC(=O)COCc2cc(-c3ccc4c(c3)OCO4)on2)sc2c1CCCC2`, 0.822%.

Regarding `COc1nc(-c2ccccc2)c2cc(C)ccc2n1`, the “% Inhibition @ 10 uM” value is listed as 3.65%. As to `CC(=O)c1cccc(NC(=O)CNS(=O)(=O)c2c(C)cc(C)cc2C)c1`, the “% Inhibition @ 10 uM” value was -2.22%. Under `CCOc1ccc(N(CC(=O)N2CCOCC2)S(=O)(=O)c2ccc(SC)cc2)cc1` stands 4.67%; under `COC(=O)c1ccc(/C=C/C(=O)c2cc3cc(Cl)ccc3oc2=O)cc1`, 4.33%; under `CCC(C)NC(=O)CSc1nc2nnc(C)c-2c(N)n1-c1ccccc1C` (stereo not shown), 1.2%. Under `CC1c2c([nH]c3ccccc23)CCC1C(=O)O` (stereo not shown) stands 7.78%.

Consider `COc1ccc2cc(-c3csc(NC(=O)CCC(=O)N4CCCC(C)C4)n3)c(=O)oc2c1` (stereo not shown), for which the “% Inhibition @ 10 uM” value worked out at 7.56%. Take `CCS(=O)(=O)c1nc(S(=O)(=O)c2ccc(Cl)cc2)c(N2CCc3ccccc3C2)s1`: the “% Inhibition @ 10 uM” value is -4.04%. Consider `Cc1cc(C)cc(OCC(=O)Nc2cc(F)ccc2F)c1`, for which the “% Inhibition @ 10 uM” value is listed as -0.63%. The result for `CSc1nn(Cc2ccc(C)cc2)c(N)c1S(=O)(=O)c1ccc(C)cc1` reads -2.29%; that for `O=C1CSC2=NC3=C(CCc4ccccc43)C(c3ccc(F)cc3)N12` (stereo not shown), 10.1%.

For `CCOc1ccc2nc(Nc3ncc4c(n3)CC(C)(C)CC4=O)nc(C)c2c1`, the “% Inhibition @ 10 uM” value is given as -1.17%.

For the compound `COc1ccccc1/C=C/C=N/n1cnnc1`, the “% Inhibition @ 10 uM” value worked out at 3.06%. Under `O=C(Nc1ccc2c(c1)OCO2)c1ccccc1` stands 5.08%. Under `CCCCSc1c(O)c2ccccc2n(C)c1=O` stands 4.05%; under `Cc1csc(NC(=O)c2cnn(-c3ccc(F)cc3F)c2C2CCNCC2)n1`, 0.358%; under `c1cc2c(cc1CN1CCN(Cc3csc4c3CCCC4)CC1)OCO2`, 20%. Under `CCn1c(SCC(=O)NCc2ccco2)nc2c(c1=O)SCC2` stands 1.39%; under `COc1ccccc1C(=O)Nc1ccccc1C`, -2.21%.

Turning to `CCOC(=O)c1sc(NC(=O)c2cc(-c3ccc4c(c3)OCO4)on2)c(C(=O)OCC)c1C`, the “% Inhibition @ 10 uM” value was -6.45%. In the case of `COc1cc(C2c3c(-c4ccccc4O)n[nH]c3C(=O)N2CCCOC(C)C)ccc1OCC(C)C` (stereo not shown), the “% Inhibition @ 10 uM” value turned out to be 0.366%. Under `Cc1c(C(=O)O)cnc2cc(-c3ccccc3)nn12` stands 2.39%; under `O=C(N1CCN(CCO)CC1)N1c2ccccc2CCc2ccccc21`, 3.18%; under `Brc1ccc(-c2nc(-c3ccccc3)cc(N3CCCCC3)n2)cc1`, 4.22%. For the compound `N#Cc1c(SCc2ccccc2)nc2ccc(F)cc2c1O`, the “% Inhibition @ 10 uM” value is listed as -4.41%. The result for `COc1ccccc1Cn1c(COC(=O)c2cccs2)nc2ccccc21` reads 3.54%; that for `CCOc1cc(/C=C2\SC(=N)N(c3nonc3N)C2=O)ccc1OCCN1CCOCC1`, 3.81%.

For `Cc1c(C(=O)Nc2cc(F)cc(F)c2)cnn1-c1ccccc1`, the “% Inhibition @ 10 uM” value was -9.31%. Under `Cc1ccc2c(C)nc(NC3=NCN(C4CCCC(C)C4C)CN3)nc2c1` (stereo not shown) stands 3.73%; under `CCOC(=O)c1cc2c(n(-c3ccccc3)c1=O)CCCC2=O`, 2.57%. The result for `CC1(C)C=C(c2ccc(O)cc2)CC(C)(C)N1` reads -0.0953%; that for `N#CC1=C(N)Oc2[nH]nc(-c3ccccc3)c2C1c1ccc(Cl)cc1` (stereo not shown), 4.39%; that for `C=CCN1C(=O)/C(=C\c2ccc(O)c(OC)c2)C(C(=O)OC)=C1C`, 9.42%. As to `O=C(O)c1cccc(Nc2cccc(Cl)c2)c1`, the “% Inhibition @ 10 uM” value is 0.989%. For the compound `COc1ccc(-c2csc3ncn(Cc4ccc(C(=O)O)cc4)c(=O)c23)cc1`, the “% Inhibition @ 10 uM” value is given as 12.4%. The result for `Nc1nonc1C(=O)NCCNCc1ccc(-c2ccccc2F)o1` reads 3.27%; that for `CC(=O)n1cc(C2C(=O)NC(=O)NC2=O)c2ccccc21`, -2.42%.

As for `Cc1ccc(S(=O)(=O)c2ccc3c(c2)Sc2ccccc2N3)cc1`, the “% Inhibition @ 10 uM” value was 0.266%. The result for `COCCNC(=O)CCc1nc2cccnc2n1-c1ccccc1` reads -8.68%. The result for `O=C(NCc1ccco1)Nc1cnc2ccccc2c1O` reads -2.84%.
